# Results published in PMC4336329 (PLoS ONE, 2015).
# Screen size: about 310,000 compounds; about 14,000 (4.5%) showed an effect of 50% or more. Effects have a minus sign here. This is one part of the list.
# Molecular target: human ether-à-go-go-related gene (hERG) potassium channel (human, UniProt Q12809)
# Assay: primary screen, population patch clamp on CHO cells stably expressing hERG
# 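Further: peak tail current of the secondary pulse compared with the same well before compound.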
# Chain of human ether-à-go-go-related gene (hERG) potassium channel (Q12809 whole entry, looked up): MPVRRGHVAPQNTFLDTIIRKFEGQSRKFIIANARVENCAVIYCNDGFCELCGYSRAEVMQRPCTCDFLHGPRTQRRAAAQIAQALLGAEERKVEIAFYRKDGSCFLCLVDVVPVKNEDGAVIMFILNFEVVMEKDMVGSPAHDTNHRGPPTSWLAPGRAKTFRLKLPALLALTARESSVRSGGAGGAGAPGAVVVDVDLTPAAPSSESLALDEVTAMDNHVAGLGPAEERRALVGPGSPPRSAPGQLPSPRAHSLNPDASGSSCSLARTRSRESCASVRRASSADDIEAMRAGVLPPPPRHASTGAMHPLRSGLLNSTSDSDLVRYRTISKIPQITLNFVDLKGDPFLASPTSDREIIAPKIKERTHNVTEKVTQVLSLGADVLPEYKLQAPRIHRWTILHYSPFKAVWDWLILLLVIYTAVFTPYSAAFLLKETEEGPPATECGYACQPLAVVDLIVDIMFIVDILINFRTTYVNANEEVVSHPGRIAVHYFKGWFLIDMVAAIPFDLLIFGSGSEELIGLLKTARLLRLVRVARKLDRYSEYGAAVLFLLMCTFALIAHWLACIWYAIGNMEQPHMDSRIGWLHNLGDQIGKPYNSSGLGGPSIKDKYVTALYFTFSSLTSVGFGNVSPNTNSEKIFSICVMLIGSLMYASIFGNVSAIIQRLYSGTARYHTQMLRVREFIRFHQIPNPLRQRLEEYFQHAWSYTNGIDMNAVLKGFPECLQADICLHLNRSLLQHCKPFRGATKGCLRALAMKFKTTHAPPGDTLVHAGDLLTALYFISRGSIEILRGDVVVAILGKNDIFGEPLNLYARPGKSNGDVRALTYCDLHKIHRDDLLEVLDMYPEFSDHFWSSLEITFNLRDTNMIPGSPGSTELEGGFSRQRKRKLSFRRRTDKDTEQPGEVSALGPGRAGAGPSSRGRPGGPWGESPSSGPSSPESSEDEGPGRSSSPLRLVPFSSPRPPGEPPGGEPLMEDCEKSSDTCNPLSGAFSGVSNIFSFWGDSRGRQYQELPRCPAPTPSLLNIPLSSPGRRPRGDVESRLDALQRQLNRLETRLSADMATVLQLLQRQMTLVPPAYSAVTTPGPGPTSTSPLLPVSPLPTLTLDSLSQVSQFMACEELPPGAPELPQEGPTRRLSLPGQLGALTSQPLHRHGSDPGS
row,SMILES,"hERG current change (%, negative = inhibition) at 10uM"
1,O=C(Cn1nc(-c2ccc(Cl)cc2)ccc1=O)NCCN1CCOCC1,-19.2%
2,O=C(c1cccs1)N1CCN(CCc2ccccc2)CC1,-48.6%
3,Cc1ccccc1NC(=O)Cn1c(NCC(C)O)nc2ccccc21 (stereo not drawn),-2.11%
4,Cc1cc(/C=C2\C(=O)NC(=O)N(C)C2=O)c(C)n1-c1ccc2c(c1)OCO2,14.7%
5,CC1CCCN(S(=O)(=O)c2ccc(Cl)s2)C1 (stereo not drawn),-1.51%
6,Cc1ncc([N+](=O)[O-])n1CC(=O)Nc1ccccc1,18.5%
7,CCOC(=O)c1cnc(-n2nc(C)cc2C)nc1Nc1ccc(OC)cc1,-10.6%
8,Cc1ccc(CN2CC(C(=O)Nc3ncccc3C)CC2=O)cc1 (stereo not drawn),-14%
9,O=C(COc1ncnc2sccc12)N1CCN(C(=O)c2ccco2)CC1,1.86%
10,Cc1ccc(C)c(NC2=NCC(=O)N2c2ccc3c(c2)OCCO3)c1,-8.96%
11,COc1ccc(Cn2c(CCC(=O)NCCC(C)C)nc3ncccc3c2=O)cc1,-43.1%
12,O=C(NCC1CC1)c1cc(-c2ccccc2)nn1CC1CC(c2cccc([N+](=O)[O-])c2)=NO1 (stereo not drawn),-60.8%
13,c1coc(CNc2nc(-c3ccncc3)cs2)c1,-3.17%
14,CC(C)(C)NC(=O)C1N(c2cccnc2)C(=O)C2C(C(=O)Nc3ccccc3F)C3(C)C=CC21O3 (stereo not drawn),-11.6%
15,O=[N+]([O-])c1nn(-c2ccc(Cl)cc2)n(O)c1=NCc1ccccc1Cl,-8.2%
16,O=C(Cn1cc(C(F)(F)F)cc(Cl)c1=O)Nc1cc(Cl)cc(Cl)c1,5.67%
17,Cc1ccc(C(=O)C(C)OC(=O)c2cc(=O)[nH]c3ccccc23)cc1 (stereo not drawn),18.5%
18,COc1ccc(-n2nnnc2SCC(=O)N2C(C)CCCC2C)c(OC)c1 (stereo not drawn),-20.2%
19,Cn1c(=O)c(C(=O)NC2CCCCCC2)c(O)c2ccccc21,16.8%
20,C/C=C/C(=O)Nc1cccc(C2=NOC3(C2)C[C@@H](C(N)=O)N(C(=O)C(c2ccccc2)c2ccccc2)C3)c1 (stereo partly drawn),-5.73%
21,Cc1cc([N+](=O)[O-])c(C)cc1-c1ccc(/C=N/NC(=O)Cn2nnnc2N)o1,21.1%

row,SMILES,"hERG current change (%, negative = inhibition) at 10uM"
1,CC(C)C(=O)Nc1ccc(C(=O)NNC(=O)CCc2ccccc2)cc1,6.55%
2,CC/C(=N\NC(=O)c1ccccc1O)c1c(O)n(Cc2ccccc2)c(=O)[nH]c1=O,-4.37%
3,Cc1ccc(N2CCN(c3ccc(C)cc3)C2c2ccccn2)cc1,-8.31%
4,Cc1ccc(C)c(OCc2nnc(NC(=O)c3ccc4c(c3)OCO4)s2)c1,0.503%
5,O=[N+]([O-])c1c(-c2cn[nH]c2)n[nH]c1-c1cn[nH]c1,7.11%
6,COC(=O)C1=C(C(=O)OC)[C@@H]2N(C)c3ccc(OC)cc3[C@@]23C[C@@H](C(=O)OC)N(C(=O)C2CCC2)C3=N1,-50%
7,COc1ccc(N(CC(=O)NCCSCc2ccco2)S(=O)(=O)c2ccccc2)cc1,-9.08%
8,CCSc1ccc([C@@H]2[C@H]3C(=O)N(C)C(=O)[C@H]3[C@]3(C(=O)OC)CCCCN23)cc1OC.O=C(O)C(F)(F)F,-8.41%
9,Cc1cccc(CCNC(=O)C2CCC(=O)N(Cc3ccc(Cl)cc3)C2)n1 (stereo not drawn),5.05%
10,N#Cc1ccc(OCC(=O)N/N=C/C2CC=CCC2)cc1 (stereo not drawn),-16.4%
11,Br.OCCn1c(-c2ccccc2)csc1=Nc1ccccc1,-19.6%
12,O=C(CSc1nc2ccccc2s1)NCCOc1ccccc1,-1.83%
13,Cc1ccc(N(CCC(=O)Nc2nnc(C3CC3)s2)S(=O)(=O)c2ccccc2)cc1,-16.2%
14,O=S(=O)(NC1CCCCC1Nc1ccc(Cl)cc1)c1ccccc1 (stereo not drawn),7.5%
15,COc1ccc(-c2csc(NC(=O)CCCc3nc4ccccc4c(=O)[nH]3)n2)cc1OC,-22.4%
16,COc1cc2c(C(=O)N3CCN(c4cccc(Cl)c4)CC3)cn(CC(C)C)c(=O)c2cc1OC,-63.6%
17,Cn1c(=O)c2c(SCC(=O)Nc3cccc(F)c3)nc(-c3ccco3)nc2n(C)c1=O,10.7%
18,CN(NC(=O)Nc1ccccc1)c1cnn(C)c(=O)c1Cl,27.4%
19,O=P(Cc1ccccc1O)(c1ccccc1)c1ccccc1,3.52%
20,CN(C(=O)c1ccc2c(c1)OCO2)C1(C(=O)NC2CCCC2)CCCCC1,-0.155%
21,CC(Oc1ccc2c(-c3ccccc3)cc(=O)oc2c1)C(=O)NCCCn1ccnc1 (stereo not drawn),-52.5%

row,SMILES,"hERG current change (%, negative = inhibition) at 10uM"
1,COc1ccccc1-c1nc(C#N)c(N2CCN(C(c3ccccc3)c3ccccc3)CC2)o1,6.58%
2,Cc1ccc(NC(=O)c2cnccn2)nc1,6.83%
3,C=CCOc1c(Cl)cc(/C=N/O)cc1OC,7.64%
4,Cc1ccc(NC(=O)CSc2nnc(Cn3c(=O)sc4ccccc43)n2C)cc1,2.3%
5,O=C1CN(C(=O)c2ccc(Br)o2)C(c2ccc(F)cc2)c2cc(Cl)ccc2N1 (stereo not drawn),-11.6%
6,NC(=NC(=O)c1cccc(C(F)(F)F)c1)c1ccc(C(F)(F)F)cn1,-8.17%
7,O=C(c1ccc2c(c1)ncn2C1CCCCC1)N1CCC2(CC1)OCCO2,-2.01%
8,Nc1cc(Oc2ccc(Cl)cc2Cl)nc(N)n1,13%
9,COc1cccc(N2CCN(C3CC(=O)N(c4ccc(C)c(Cl)c4)C3=O)CC2)c1 (stereo not drawn),-9.03%
10,COCc1cc(C)nc(SCC(=O)Nc2cc(C(F)(F)F)ccc2N2CCOCC2)c1C#N,-18.3%
11,CC(C)CN(C(=O)COC(=O)c1c(Cl)ccc(Cl)c1Cl)C1CCS(=O)(=O)C1 (stereo not drawn),-23.4%
12,CCOC(=O)NC(=S)Nc1ccc(C(C)(C)C)cc1Br,4.68%
13,COc1ccc(CNC(=O)C/C(C)=N/NC(=O)c2cnccn2)cc1,30.8%
14,COc1cccc(N2CCN(Cc3ccco3)CC2)c1,21.4%
15,O=C(NC12CC3CC(CC(C3)C1)C2)N1CCN(C(=O)C2CCCO2)CC1 (stereo not drawn),3.22%
16,O=C(COc1ccc(S(=O)(=O)NC2CCCCC2)cc1)N1CCN(c2ccc(F)cc2)CC1,-16.6%
17,COc1cc(CNCc2ccccn2)ccc1OCC(=O)NC(C)(C)C.Cl,0.777%
18,COc1ccc(NC(C)=O)cc1S(=O)(=O)Nc1ccccc1C(=O)N1CCCC1,1.8%
19,CC(C)N(C(=O)CSc1nc2ccccc2n1Cc1ccccc1)C(C)C,-10.7%
20,COC(=O)c1ccc2c(=O)[nH]c(CSc3nc(-c4ccc(F)cc4)cs3)nc2c1,6.41%
21,CN1/C(=C\C(=O)c2oc3ccccc3c2N)C(C)(C)c2ccccc21,15.9%

row,SMILES,"hERG current change (%, negative = inhibition) at 10uM"
1,COCCNC(=O)/C(C#N)=C/C=C/c1ccccc1[N+](=O)[O-],6.93%
2,O=C(COC(=O)c1cc[n+]([O-])cc1)Nc1cc([N+](=O)[O-])ccc1Cl,-18.3%
3,Fc1cccc(F)c1CN1CCN(c2ncccn2)CC1,15.5%
4,Cc1noc(NS(=O)(=O)c2ccc(NC(=O)C34CC5CC(C3)CC(n3cnc(Br)n3)(C5)C4)cc2)c1C,4.56%
5,COc1cc2cc(CN(CCN3CCCC3)C(=O)Nc3ccc(F)cc3)c(=O)[nH]c2cc1OC,-7.92%
6,O=C(NCCCn1ccnc1)C(=O)NCC1OCCCN1S(=O)(=O)c1ccc(F)cc1 (stereo not drawn),16.6%
7,Cc1ccc(NC(=S)NCCc2ccccc2)nc1,0.15%
8,CC(NC(=O)C(C)N1C(=O)c2ccccc2C1=O)c1ccccc1 (stereo not drawn),1.68%
9,NC(=O)c1c(NC(=O)C2CC=CCC2C(=O)O)sc2c1CCCCC2 (stereo not drawn),16.9%
10,Cc1ccc(/C=N/NC(=O)CNC(=O)COc2ccccc2)o1,-6.13%
11,N#C/C(=C\c1cccnc1)C(=O)Nc1ccccc1,4.04%
12,Nc1c(C(=O)c2ccccc2)oc2ccccc12,10.5%
13,CCN(C(=O)c1ccco1)c1nnc(-c2ccc(OC)cc2)s1,10.6%
14,COc1ccc(NC(=O)CCC(=O)c2ccc(-c3ccccc3)cc2)cc1,7.34%
15,COC(=O)c1ccc(CN2CCCC(CO)(Cc3ccc(F)cc3F)C2)cc1 (stereo not drawn),-42.3%
16,COc1ccccc1N1CC(C(=O)NCCN2C(=O)S/C(=C\c3cccnc3)C2=O)CC1=O (stereo not drawn),1.78%
17,Cc1cc(NS(=O)(=O)c2ccc(NC(=O)CCCC(=O)O)cc2)nc(C)n1,10.4%
18,O=c1[nH]c(SCc2ccc(Cl)cc2)nc2ccsc12,-67%
19,Cc1nc(CNS(=O)(=O)c2ccccc2F)cs1,4.37%
20,O=C(NCC(c1ccco1)N1CCCC1)c1ccc(Cl)c(S(=O)(=O)N2CCc3ccccc32)c1 (stereo not drawn),-51%
21,CCCSc1nnc(-c2cccc(S(=O)(=O)N(C)C)c2)n1-c1cc(OC)ccc1OC,-68.2%
